The text below walks through data of the RNAGym collection of RNA variant scans (doi:10.1093/nar/gkz1192).

The source gives no read counts; variants with many changes may rest on few reads.

The labels stand for the following.
B1: CPEB3 Ribozyme (parent)
chain: UAACAGGGGGCCACAGCAGAAGCGUUCACGUCGCAGCCCCUGUCAGAUUCUGGUGAAUCUGCGAAUUCUGCUGUAUAUCUC

The series covers variants of B1. The series is described as follows: self-cleavage, relative activity (ratio to wild type); higher = more cleavage; in vitro, sequencing. Put shortly:
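Libraries of CPEB3 self-cleaving ribozyme mutants came from rounds of error-prone PCR and carried barcodes, which DNA sequencing matched to variants. In vitro transcription used T7 RNA polymerase at 37°C for 5 hours, with a further 15 min in DNase I before EDTA stopped the reaction; the ribozymes cleaved during both steps. The RNA was reverse transcribed with template switching and sequenced on Illumina. Relative activity is the cleaved/total read fraction of a variant divided by that of the unmutated ribozyme, averaged over three batches with at least 5 reads.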
Consider CAACAGGGGGCCUCAGCUGAAGCGUUCACGUCGCAGCCCCUGUCAGACUCUGGUGAAUCUGCGUAUUCUGCUGUAUAUCUC [U1C A13U A18U U48C A64U], for which the self-cleavage was found to be 0.1.

With CAACAGGGGGCCGCAGCAGAAGCGUUCACGUCGCAGCCCCUGUCGGAUUCUGGUGAAUAUGCGAGUUCUGCUGUAUAUCUC [U1C A13G A45G C59A A65G], the self-cleavage is 0.09. Under CAACAGGGGGCCUCAGCAGAAGCGUUCACGUCGCAGCCCCUGUCAGAUUCUGGUGAAUCUGCGGAUCCUGCUGUAUAUCUC [U1C A13U A64G U67C] stands 0.16; under CAACAGGGGGCCGCAGCAGAAGCGUUCUCGUCGCUGCCCCUGUCAGAUUCUGGUGUAUCUGCGAAUUCUGCUGUAUAUCUC [U1C A13G A28U A35U A56U], 0.25.

As to CAACAGGGGGCCGCAGCAGAAGCGUUCACGUCGCUGCCGCUGUCAGAUUCUGGUGUAUCUGCGAAUUCUGCUGUAUAUCUC [U1C A13G A35U C39G A56U], the self-cleavage is 0.04. As to CAACAGGGGGCCGCAGCAGAAGCGUUCACGUCGCAGCCCCUGUCAGAUUCAGGUGAAUCCGCGAAUCCUGCUGUAUAUCUC [U1C A13G U51A U60C U67C], the self-cleavage amounted to 0.25. The result for CAACAGGGGGCCGCAGCAGAGGCGUUCACGUCGCAGCCCCUGUCAGAUUCUGGUGAAUCUGCGAAUCCUGCUGUAUUUCUC [U1C A13G A21G U67C A77U] reads 0.07.

CAACAGGGGGCCGCAGCAGAAGCGUUCACGUCGCAGCCCCUGUCGGAUUCUGGUGAAUCUGCGAAUCCUGCUGUGUAUCUC [U1C A13G A45G U67C A75G]: the self-cleavage is 0.09. Under CAACAGGGGGCCUCAGCAGAAGCGCUCACGUCGCAACCCCUGUCAGAUUCCGGUGAAUCUGCGAAUUCUGCUGCAUAUCUC [U1C A13U U25C G36A U51C U74C] stands 0.05; under CAACAGGGGGCCGCAGCAGAUGCGUUCACGUCGCAGCCCCUGUCAAAUUCUGGUGGAUCUGCGAAUUCUGCUAUACAUCUC [U1C A13G A21U G46A A56G G73A U76C], 0.05. Under CAACAGGGGGCCUCAGCAGAAGCGUUCACGUCGCUGCCCCCGUCAGAUUCUGGCGAAUCUGCGGAUUCUGCUGUGUAUCUC [U1C A13U A35U U41C U54C A64G A75G] stands 0.13; under CAACAGGGGGCCUCAGCAGGAGCGUUCACGUCGCAGCCCCUGUCAGAUUCUGGUGAAUCUGCGAAUUGUGCUGUAUAUCUC [U1C A13U A20G C68G], 0.16; under CAACAGGGGGCCUCAGCAGAAGCGUUCACGUCGCGGCCCUUGUCAGAUUCUGGUGAGUCUGCGAAUUCUGCUGUAUUUCUC [U1C A13U A35G C40U A57G A77U], 1.05.

Turning to CAACAGGGGGCCGCAGCAGAAGCGUUCACGUCGCAGCCCCAGUCAGAUUCUGGCGAUUCUGCGAAUUCUGCUGUAUAUCUC [U1C A13G U41A U54C A57U], the self-cleavage amounted to 0.17. Under CAACAGGGGGCCUCAGCGGAAGCAUUCACGUCGCAGCCCCAGUCAGAUUCUGGUGAAUCUGCGAAUUCUGCUGUAUAUCUC [U1C A13U A18G G24A U41A] stands 0.23. Under CAACAGGGGGCCUCAGCAGAAGCGCUCACGUCGCAGCCCCGGUCAGAUUCUGGUGAAUCAGCGAAUUCCGCUGUAUAUCUC [U1C A13U U25C U41G U60A U69C] stands 0.03; under CAACAGGGGGCCUCAGCAGAAGCGUUCACGUCGCAGCCCUUGUCAGAUUCUGGAGAAUCAGCGGGUUCUGCUGUAUAUCUC [U1C A13U C40U U54A U60A A64G A65G], 0.05; under CAACAGGGGGCCUCAGCAGAGGCGUUCACGUCGCUGCCCCCGUCAGAUUCAGGUGAAUCUGCGAAUUCUGCUGUGUAUCUC [U1C A13U A21G A35U U41C U51A A75G], 0.19. The result for CAACAGGGGGCCUCAGCAGAAGCGUUCGCGUCGCAGCCCCUGUCAGAUUCUGGUGAAUCUGCGAAUUCUGCUGUAUAUCUC [U1C A13U A28G] reads 0.34; that for CAACAGGGGGCCUCAGCAGAAGCGUUCACGUCACAGCCCCUGUCAGAUUCUGGAGAAUCUGCGAAUUCUGCUGCAUAUCUC [U1C A13U G33A U54A U74C], 0.28.

As for CAACAGGGGGCCUCAGCAGGGGCGUUCACGUCGCAGCCCCUGUCAGAUUCUGGUGAAUCUGCGAAUUCUGAUGUAUAUCUC [U1C A13U A20G A21G C71A], the self-cleavage came out at 0.09.

For CAACAGGGGGCCUCAGCAGAAGUCUUCACGUCGCAGCCCCUGUCAGAUUCGGGUGAAUCUGCGAAUUCUGCUGUAUAUCUC [U1C A13U C23U G24C U51G], the self-cleavage was 0.14. Under CAACAGGGGGCCGCAGCAGAAGCGUUCACGUCGCAGCCCCUGUCAGAUUCUGGUGAGUCUGCGAAUUCUGCUGUAUAUCUC [U1C A13G A57G] stands 0.5; under CAACAGGGGGCCGCAGCAGAAGCGCUCACGUCGCAGCCCCAGUCAGAUUCUGGUGAAUCUGCGAAUUCUGCUGUAUAUCUC [U1C A13G U25C U41A], 0.19. Consider CAACAGGGGGCCUCAGCAGGAGCGUUCACGUCGCAGCCCCUGUCAGAUUCUGGUGAAUCUGCGAAUUAUGUUGUAUAUCUC [U1C A13U A20G C68A C71U], for which the self-cleavage turned out to be 0.19. Under CAACAGGGGGCCGCAGCAGAAGCGUUCACGUCGCAGCCCCCGUCAGAUUCAGGUGAAUCUGCGAAUUCUGCUGUAUAUCUC [U1C A13G U41C U51A] stands 0.73; under CAACAGGGGGCCGCAGCAGAAGCGUUCACGUCGCAGCCCCUGUCAGAUUCUGGUGAAUCUGCGAAUUCUGCCGUAUAUCUC [U1C A13G U72C], 0.92. The result for CAACAGGGGGCCGCAGCAGAAGCGUUCACGUCGCAGCCCCUGUCAGGUUCUGGUGAAUCCGCGAAAUCUGCUGUAUAUCUC [U1C A13G A47G U60C U66A] reads 0.26; that for CAACAGGGGGCCGCAGCAGAAGCGUUCACGCCCCAGCCUCCGUCAGAUUCUGGUGAAACUGCGAAUUCUGCUGUAUAUCUC [U1C A13G U31C G33C C39U U41C U58A], 0.04. The result for CAACAGGGGGCCUCAGCAGAAGCGUUCACGUCGCUGCCCCUGUCAGAUUCUGGUGAAUCUGCGAAUUCUGCCGUAUAUCUC [U1C A13U A35U U72C] reads 0.47; that for CAACAGGGGGCCUCAGCAGAAGCGCUCACGUCGCAGCCCCUGUCAGAUUCUGGUGAAUCUGCGAAUUCUGCUGUAUAUCUC [U1C A13U U25C], 0.4. As to CAACAGGGGGCCGCAGCAGAAGCGCUCACGUCGCAGCCCCUGUCAGAUUCUGGUGAAUCUGCGAAUUCUGUUGUAUAUCUC [U1C A13G U25C C71U], the self-cleavage worked out at 0.26. The result for CAACAGGGGGCCGCAGCAGAAGCGUUCACGUCGCAGCCCCUGCCAGAUUCUGGAGAAUCUGCGAAUUCUGCUGUAUAUCUC [U1C A13G U43C U54A] reads 0.42. Under CAACAGGGGGCCGCAGCAGAAGCGUUCACGUCGCAGCCCCCGUCAGAUUCUGGCGAAUCUGCGAAUUCUGCUGUAUAUCUC [U1C A13G U41C U54C] stands 0.65.
